Laboratory results reported in patent publication US20070059799A1 (priority 1999, published 2007).
Like-named read-outs stand apart in the source and are kept apart here. At least one peptide structure holds a part that was inferred or is arguable (an end, a ring closure or a residue). Marks after values point to notes of the source that are not given here.

Tests used:
[1] = test system: A*0201/Kb transgenic mice; type: in vivo; conditions: responders/tested
CTL = type: cell-based
[2] = test system: PBMC from patients acutely infected with HBV; conditions: responders/tested, cited from earlier work
human PBMC = type: cell-based; conditions: primary cultures, responders/tested
A2-supertype alleles = type: binding, human; conditions: for Alleles bound: number of supertype alleles bound, 3 or more considered degenerate
[3] = test system: PBMC from patients acutely infected with HBV; test: Patient: recall CTL responses in acutely infected HBV patients; type: cell-based, human; conditions: acute patients; responders/tested; no literature mark
Procedure: Briefly, PBMC from patients acutely infected with HBV were cultured in the presence of 10 μg/ml of synthetic peptide. After seven days, the cultures were restimulated with peptide. The cultures were assayed for cytotoxic activity on day 14 using target cells pulsed with peptide.

[4] = non-crossreactive A2-supermotif peptides
[5] = positive when responders noted in primary cultures, acute patients or transgenic mice
[6] = acute patients, a-Bertoni, b-Rehermann, c-Nayersina et al
[7] = acute patients, from a-Bertoni et al, b-Rehermann et al., c-Nayersina et al.
[8] = A2 supermotif peptides, number of A2-supertype alleles bound
[9] = non-crossreactive A3-supermotif peptides
[10] = A3-supermotif cross-reactive peptides
[11] = B7-supermotif cross-reactive peptides
[12] = A2-supermotif cross-reactive peptides

| SMILES | Immunogenicity overall (CTL; [5]) | Immunogenicity primary (human PBMC) | Immunogenicity patients [3] | Immunogenicity patients ([2]; patients, Bertoni et al) | Immunogenicity overall (CTL; [10]) | Immunogenicity primary (human PBMC; [10]) | other results |
| --- | --- | --- | --- | --- | --- | --- | --- |
| CC[C@H](C)[C@H](NC(=O)CNC(=O)[C@H](CC(C)C)NC(=O)[C@H](CO)NC(=O)[C@H](CC(C)C)NC(=O)[C@H](CC(C)C)NC(=O)[C@@H](N)Cc1ccccc1)C(=O)N[C@@H](Cc1c[nH]cn1)C(=O)N[C@@H](CC(C)C)C(=O)O [Peptide 927.11] | + | 15/22 | – | – | – | – | Immunogenicity transgenic ([1]; A2 supermotif peptides): 12/13; Immunogenicity transgenic [1, 4]: 12/13; Immunogenicity overall (CTL; [4]): +; Immunogenicity patients [2, 6]: 9/15^a; Immunogenicity patients [2, 7]: 9/15^a; Immunogenicity primary (human PBMC; [4]): 15/22; Number of A2-supertype alleles bound (A2-supertype alleles; [8]): 2; Number of A2-supertype alleles bound (A2-supertype alleles; [4]): 2; Alleles bound (A2-supertype alleles): 2 |
| CC[C@H](C)[C@H](NC(=O)[C@@H]1CCCN1C(=O)[C@H](CC(C)C)NC(=O)[C@@H](N)CC(C)C)C(=O)N[C@@H](Cc1ccccc1)C(=O)N[C@@H](Cc1ccccc1)C(=O)N[C@@H](CS)C(=O)N[C@@H](CC(C)C)C(=O)N[C@@H](Cc1c[nH]c2ccccc12)C(=O)N[C@H](C(=O)O)C(C)C [Peptide 1069.10] | – | 3/3 | – | – | – | – | Immunogenicity transgenic ([1]; A2 supermotif peptides): 0/4; Immunogenicity transgenic [1, 4]: 0/4; Immunogenicity overall (CTL; [4]): +; Immunogenicity patients [2, 6]: 2/5^c; Immunogenicity patients [2, 7]: 2/5^c; Immunogenicity primary (human PBMC; [4]): 3/3; Number of A2-supertype alleles bound (A2-supertype alleles; [4]): 1; Alleles bound (A2-supertype alleles): 1 |
| CC[C@H](C)[C@H](NC(=O)CNC(=O)[C@H](C)NC(=O)[C@H](CCCCN)NC(=O)[C@H](Cc1c[nH]c2ccccc12)NC(=O)[C@H](CC(C)C)NC(=O)[C@@H](N)[C@@H](C)O)C(=O)N[C@@H](CC(C)C)C(=O)N[C@@H](Cc1ccc(O)cc1)C(=O)N[C@@H](CCCCN)C(=O)O [Peptide 1069.15] | + | 3/8 | 5/28 | 5/28 | – | – | Immunogenicity overall (CTL; [9]): +; Immunogenicity primary (human PBMC; [9]): 3/8 |
| CC[C@H](C)[C@H](NC(=O)[C@H](CO)NC(=O)[C@@H](NC(=O)[C@@H](N)CC(N)=O)C(C)C)C(=O)N1CCC[C@H]1C(=O)N[C@@H](Cc1c[nH]c2ccccc12)C(=O)N[C@H](C(=O)N[C@@H](Cc1c[nH]cn1)C(=O)N[C@@H](CCCCN)C(=O)O)[C@@H](C)O [Peptide 1069.16] | + | 0/8 | 1/21 | 1/21 | + | 0/8 | – |
| CC(C)C[C@H](N)C(=O)N[C@H](C(=O)N[C@H](C(=O)N[C@@H](CC(=O)O)C(=O)N[C@@H](Cc1ccccc1)C(=O)N[C@@H](CO)C(=O)N[C@@H](CCC(N)=O)C(=O)N[C@@H](Cc1ccccc1)C(=O)N[C@@H](CO)C(=O)N[C@@H](CCCNC(=N)N)C(=O)O)C(C)C)C(C)C [Peptide 1069.20] | + | 0/4 | 1/22 | 1/22 | + | 0/4 | – |
| CC(C)C[C@H](NC(=O)[C@@H](NC(=O)[C@@H](N)CO)[C@@H](C)O)C(=O)N1CCC[C@H]1C(=O)N[C@@H](CCC(=O)O)C(=O)N[C@H](C(=O)N[C@H](C(=O)N[C@H](C(=O)N[C@H](C(=O)N[C@@H](CCCNC(=N)N)C(=O)N[C@@H](CCCNC(=N)N)C(=O)O)C(C)C)C(C)C)[C@@H](C)O)[C@@H](C)O [Peptide 1083.01] | + | 3/5 | 8/32 | 8/32 | + | 3/5 | – |
| C[C@H](NC(=O)[C@@H](N)CCC(N)=O)C(=O)N[C@@H](Cc1ccccc1)C(=O)N[C@H](C(=O)N[C@@H](Cc1ccccc1)C(=O)N[C@@H](CO)C(=O)N1CCC[C@H]1C(=O)N[C@H](C(=O)N[C@@H](Cc1ccc(O)cc1)C(=O)N[C@@H](CCCCN)C(=O)O)[C@@H](C)O)[C@@H](C)O [Peptide 1090.10] | + | 3/6 | 3/21 | 3/21 | + | 3/6 | – |
| CC[C@H](C)[C@H](NC(=O)[C@H](C)NC(=O)[C@@H](N)CO)C(=O)N[C@@H](CS)C(=O)N[C@@H](CO)C(=O)N[C@H](C(=O)N[C@H](C(=O)N[C@@H](CCCNC(=N)N)C(=O)N[C@@H](CCCNC(=N)N)C(=O)O)C(C)C)C(C)C [Peptide 1090.11] | + | 1/4 | 2/22 | 2/22 | + | 1/4 | – |
| CC[C@H](C)[C@H](N)C(=O)N1CCC[C@H]1C(=O)N[C@H](C(=O)N1CCC[C@H]1C(=O)N[C@@H](CO)C(=O)N[C@@H](CO)C(=O)N[C@@H](Cc1c[nH]c2ccccc12)C(=O)N[C@@H](C)C(=O)N[C@@H](Cc1ccccc1)C(=O)O)[C@@H](C)CC [Peptide 1145.04] | + | 0/4 | 1/12 | 1/12 | – | – | Immunogenicity overall (CTL; [11]): +; Immunogenicity primary (human PBMC; [11]): 0/4 |
| CSCC[C@H](NC(=O)[C@H](C)NC(=O)[C@H](C)NC(=O)[C@@H]1CCCN1C(=O)[C@@H](N)Cc1c[nH]cn1)C(=O)N1CCC[C@H]1C(=O)N[C@@H](Cc1c[nH]cn1)C(=O)N[C@@H](CC(C)C)C(=O)N[C@@H](CC(C)C)C(=O)O [Peptide 1147.02] | unk | 0/5 | 0/12 | 0/12 | – | – | Immunogenicity primary (human PBMC; [11]): 0/5 |
| CSCC[C@H](NC(=O)[C@H](CC(C)C)NC(=O)[C@H](C)NC(=O)[C@@H]1CCCN1C(=O)[C@@H](N)Cc1ccc(O)cc1)C(=O)N1CCC[C@H]1C(=O)N[C@@H](CC(C)C)C(=O)N[C@@H](Cc1ccc(O)cc1)C(=O)N[C@@H](C)C(=O)O [Peptide 1147.08] | unk | – | 0/12 | 0/12 | – | – | – |
| CC[C@H](C)[C@H](NC(=O)CNC(=O)[C@H](C)NC(=O)[C@H](CCCCN)NC(=O)[C@H](Cc1c[nH]c2ccccc12)NC(=O)[C@H](CC(C)C)NC(=O)[C@@H](NC(=O)[C@@H](N)Cc1c[nH]cn1)[C@@H](C)O)C(=O)N[C@@H](CC(C)C)C(=O)N[C@@H](Cc1ccc(O)cc1)C(=O)N[C@@H](CCCCN)C(=O)O [Peptide 1147.16] | + | 0/6 | 1/22 | 1/22 | + | 0/6 | – |
| CC(C)C[C@H](NC(=O)[C@H](CCCNC(=N)N)NC(=O)[C@H](C)NC(=O)[C@@H](NC(=O)[C@H](Cc1ccc(O)cc1)NC(=O)[C@H](CCCNC(=N)N)NC(=O)[C@H](CO)NC(=O)[C@H](CC(C)C)NC(=O)CN)C(C)C)C(=O)O [Peptide 1168.02] | + | – | – | – | – | – | Immunogenicity overall (CTL; [12]): +; Immunogenicity patients ([2]; acute patients, a-Bertoni et al): 9/13^a; Immunogenicity patients [2, 7]: 9/13^a; Number of A2-supertype alleles bound (A2-supertype alleles; [12]): 3; Number of A2-supertype alleles bound (A2-supertype alleles; [8]): 3; Alleles bound (A2-supertype alleles): 3 |
